The source gives no read counts; variants with many changes may rest on few reads.
B1: CPEB3 Ribozyme (parent)
chain: UAACAGGGGGCCACAGCAGAAGCGUUCACGUCGCAGCCCCUGUCAGAUUCUGGUGAAUCUGCGAAUUCUGCUGUAUAUCUC

Variants of: B1
Test: self-cleavage, relative activity (ratio to wild type); higher = more cleavage; in vitro, sequencing
Outline: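 Relative activity was defined as the cleaved/total read fraction for a variant divided by the same fraction for the unmutated ribozyme. CPEB3 self-cleaving ribozyme libraries were made by rounds of error-prone PCR, barcoded, and transcribed in vitro with T7 RNA polymerase for 5 hours at 37°C, and cleavage ran through transcription plus a 15 min DNase I step before EDTA. Illumina sequencing of template-switched reverse transcripts gave the reads, and DNA sequencing mapped the barcodes. Averages come from three batches, using variants with at least 5 reads.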

Variant	self-cleavage
U26C A28G C29U C38U A56G C62G U78A	0.09
U26A U51C U69C G70U	0.43
U26A C40A G55U A57G U69C U80C	0.06
U25C U60A U66C	0.09
U26A G42A U58C	0.09
U26A U43C U58C U60A U78A	0.45
U26A U31C A35U A45G C59A	0.15
U25C U60C A64G	0.22
U25C U49C U66A	0
U26A A35U U43C U49C C59G	0.06
U26A U31A A45G U48C	0.08
U25C U51C U58C U80C	0.05
U25G A65G U66G	0.08
U25C U49C U51A U69A U78A	0.08
U26A G36A A47G G70A	0.11
U26A A28G G33A U51C U72G	0.14
U26C A28U A35U U58C U69A	0.06
U26A A35G U43C	0.49
U26C A28G U54A A56U	0.31
U25C U66C U67G	0.21
U26A U31C U51A	0.84
U26A C32U U72C U76A U80C	0.08
U26C A28G U41A U80C	0.08
U26A A28G C37U A64G	0.14

Variant	self-cleavage
U25C U51C G53U U54A	0.23
U26A U67C U72C	0.24
U25G C39A A65G	0.08
U26C A28C U60C	0.14
U26A A47G G61A U67C	0.19
U25C U60A A64G	0.29
U26A A45C U72C	0.18
U26A C32A A35G U43C U48C U49G U66C	0.06
U26C A28C C37U U72C	0.09
U26A A35C A56G	0.5
U26A U58C U72C	0.59
U26A U58C U72A	0.24
U26A G63A A64C	0.2
U25C U54A U72A	0.18
U25C U69C U78C	0.22
U25C U60C U76C	0.37
U26A A35G U72C	1.29
U26A A35G U72A	0.85
U25C U69C U74C	0.19
U25G A56G A57G	0.26
U26A U51A A56G A57G A65G A75G U78C	0.12
U25C U43C U51C A57U	0.08
U25G U43G U69A C71U	0.19
U25G U41C A65G	0.37

Variant	self-cleavage
U26A G30C U60C U78C	0.05
U26A U31A A47G U80A	0.45
U26C A28G U43A A65G	0.14
U26A A65G U69A U78C	0.16
U25C U66C U69A	0.14
U26A U43C U49A	0.16
U26A A56U A64G	0.43
U25C U54C A56U U60C A64G A77U	0.08
U25C U48C U60C	0.13
U26A G36A U43C A56G U67C	0.1
U25C U51C A64C U66A U72C U74C	0.2
U26A C40U U48C U49C U54G A65G U72A	0.05
U26A U41A A47G	0.54
U26A U48C U51A A64G	0.1
U25C U58C U60A A75G	0.34
U26A A47G U51A	0.68
U26A U43A U60A U72A	0.05
U26A A28U U43C A64U A65G U72C	0.14
U26A C50A U51C G52A	0.81
U26A A47G U69A	0.5
U25C U51C A56G	0.11
U25C U49C U54C A57G	0.11
U26A U41C U48C	0.53
U26A G36A A64G	0.09

Variant	self-cleavage
U25C U58A A64G	0.08
U25C U51C A56G U76A	0.12
U25C U51A A57G U58C G70A	0.12
U25C U41C U60C A65G A75U	0.12
U26A A35U G52A A77G	0.37
U25C U48C U66C U67A U69C	0.06
U26A G33C U43G A65G U76C	0.06
U26A A35G U58C	1.19
U26A G30A U49A	0.46
U26A A47G C50G A57G	0.09
U26A G30A A56U	0.15
U26A U41C U80A	0.67
U26A A45G C62U	0.26
U25C U49A U58A U67C	0.13
U26A G33A U60C A64U U66C U74C	0.09
U25G U31C A47U	0.06
U26C A28G U54C C62G	0.15
U26A G63A G73A	1.23
U26A G33C C62U A77G	0.05
U26A U41G A57U U72C	0.21
U25G U41A U48C A57G U58G A64G	0.02
U25C U60A U69A	0.07
U26A U43C U60C	0.08
U26A A45G U49A	0.25

Variant	self-cleavage
U26A U31C U43C	0.25
U26A A35G A56G U67C	0.27
U26A U41G A47G	0.23
U25C U54A U72G U78C U80C	0.17
U26A U41A U80C	0.24
U25C U48C U78A	0.22
U25G C37A U54G U66C	0.15
U26A U31C A35U U41A A47G U74A U78C	0.23
U26A U43A A47G U69A	0.07
U26A U31C C40A G55U A64U U69C	0.06
U26A U51A U72G U76A	1.24
U25C U49C U80A	0.15
U25C U58C U60C A65G	0.07
U26A C37U U60C	0.28
U26A A35G U41C U54C U60A A77G	0.84
U26C A28G A56U A64G	0.18
U26A U43C A64G	0.14
U26A C29A U43C	0.3
U26A C39A U58C U67A U80C	0.17
U26C A28G C38A	0.16
U26A U69A U72C	0.3
U25G U48C A57U U60A	0.08
U25C U54C A65G U80C	0.16
U26A A77G U78C	0.47

Variant	self-cleavage
U26C A28G G30C U41C G55U	0.25
U26A U31C U51A U54C	0.4
U26A U51C U60A A64G U66C U69A	0.15
U25C U48G U67C U78C C81U	0.08
U26A U41G U78C	0.13
U26C A28G U54A	0.43
U25C U41G U76A	0.06
U26A U41G U69C	0.06
U26A U31C A35G U48C U74C U78C	1.16
U26A A65G U69A	0.32
U25C U51C A56G A57G	0.36
U26C A28C U54A A57G A64U C68G	0.04
U26A A57U U74A	0.56
U25C U60C U67C U80A	0.13
U26A A28U U31C U41G A64U U67C U74C	0.06
U26A C27G U43C C59A U72A	0.08
U26C A28G A35U U74A	0.14
U25C U48A U54A	0.16
U25C U48C A56G U74A	0.07
U25C U49G U60C U69A	0.09
U26A C37U U41C U43C	0.11
U25G A28G U74C U80A	0.1
U26A U58C C71U	0.2
U25C U43C C50A A64G	0.24

Variant	self-cleavage
U26A A64U U72C	0.25
U25C U49C A65G U66C U72C	0.1
U26C A28G A64U U69G	0.04
U26C A28G U80C	0.43
U26A G33U A35G U48C U72C	0.06
U25C U51A U54C U74C	0.19
U25G U67A U78C	0.2
U25C U43C U66C U72A A77G	0.18
U26A A28G A64U	0.09
U25C U76C A77U	0.25
U26A C34U U69A	0.2
U26A A47G U60C	0.51
U25C U69C U72C U74C	0.11
U26A C27U U49C C59U U60C A65G	0.13
U25C U60C C71U	0.14
U26A A47G U54C	0.72
U26C A28G A35U	0.16
U25G U26A U43C U76A A77U	0.06
U25G U41C U49C U76A A77G	0.11
U26C A28G A35G U41A U48C	0.23
U25C U67G U80C	0.15
U25C U48C G53U	0.14
U26A U48C A64G	0.28

Reference: the RNAGym collection of RNA variant scans (doi:10.1093/nar/gkz1192)
